Out of some 420,000 compounds screened, about 64,000 (15%) were called active. This list was built around the results that the source calls inconclusive (neither active nor inactive); the mix of calls is not that of the screen. Calls come from the whole dose curve; as a rule, active = well fitted inhibition curve with a large enough effect; inconclusive = small, poorly fitted or top-dose-only effect; inactive = flat fitted curve, though single readings scatter. No potency is given beside an inconclusive call; the fits are too rough.
Test: qHTS for Inhibitors of human tyrosyl-DNA phosphodiesterase 1 (TDP1): qHTS in cells in absence of CPT; note: nearly all actives have a fitted effect of over 55% in size
Conditions: DT40 Tdp1-/- hTDP1 cells, no CPT, ATP luminescence, 48 h; activity change, negative = growth inhibition: at 46.2 µM (top of the series) unless noted
Outline: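 DT40 Tdp1-/-;hTDP1 cells, no CPT (DMSO vehicle only), 400 cells/well; compounds pin-transferred; ≥48 hr, 37 °C; CellTiter-Glo 30 min RT dark, luminescence read.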
With `CCN(CC)CCNC(=O)CS(=O)Cc1nc(-c2ccc(C)cc2)oc1C` (centres undefined) the “activity change, negative = growth inhibition” value was inactive: -1.27%.
In the case of `Cc1ccc2nsnc2c1S(=O)(=O)N(Cc1cc2cccc(C)c2[nH]c1=O)CC1CCCO1` (centres undefined), the Potency is reported as inconclusive [inhibitor, single point].
With `Cc1cccc(NC(=O)c2cccc(NC(=O)c3ccccc3)c2)n1` the Potency was inconclusive [inhibitor, single point].
For `CCCN1C(=O)c2cc(C(=O)Nc3ccc(OC)c(OC)c3)ccc2C1Nc1ccc(OC)c(OC)c1` (centres undefined), the Potency was inconclusive [inhibitor, single point].
In the case of `O=C(COCc1cc(-c2ccc(F)cc2)on1)Nc1cc(Cl)cc(Cl)c1`, the Potency is reported as inconclusive [inhibitor, single point].
In the case of `CCOc1ccc(-c2cc(C(=O)NCCCn3ccnc3)c3ccccc3n2)cc1`, the Potency is reported as inconclusive [inhibitor, single point].
With `O=C(NNC(=O)c1cc(-c2ccccc2)n(-c2ccccc2)n1)c1cccc([N+](=O)[O-])c1` the “activity change, negative = growth inhibition” value was inactive: -11%.
For `Cc1noc(C)c1COc1ccccc1C(=O)N1CCN(S(=O)(=O)c2ccc(F)c(F)c2)CC1`, the “activity change, negative = growth inhibition” value was inactive: 0.874%.
For `c1ccc(Cn2ccnc2SCc2nnc(-c3ccccc3)o2)cc1`, the Potency was inconclusive [inhibitor, single point].
In the case of `O=[N+]([O-])c1ncccc1Oc1nc(-c2cccnc2)nc2ccccc12`, the Potency is reported as inconclusive [inhibitor, single point].
With `Cn1c(Cc2ccccc2)n[nH]c1=S` the “activity change, negative = growth inhibition” value was inactive: 13.2%.
With `C=C1CC(Cn2cc(Br)c(=O)[nH]c2=O)(c2ccc(-c3ccccc3)cc2)OC1=O` (centres undefined) the Potency was active: 0.0259 µM.
For `O=S(=O)(NC1CCCC1)c1cccc(S(=O)(=O)N2CCC(n3nnc4ccccc43)CC2)c1`, the Potency was inconclusive [inhibitor, single point].
For `Cc1ccc(S(=O)(=O)N2CCC(C(=O)OCC(=O)N3CC(=O)Nc4ccccc43)CC2)cc1`, the “activity change, negative = growth inhibition” value was inactive: -1.96%.
With `CCCCC(=O)N(C)c1c(C)nc2ccc(C(=O)N3CCN(S(=O)(=O)CC)CC3)cn12` the “activity change, negative = growth inhibition” value was inactive: -0.489%.
With `CC1CCN(S(=O)(=O)c2ccc(C(=O)NCc3cccnc3)cc2)CC1` the “activity change, negative = growth inhibition” value was inactive: -19.3%.
For `CC(C)(C)CC(=O)Nc1ccccc1N1CCN(c2ccccc2)CC1`, the Potency was inconclusive [inhibitor, single point].
With `COc1cccc(CNC(=O)CCNC(=O)C2CCN(S(=O)(=O)c3ccccc3)CC2)c1` the “activity change, negative = growth inhibition” value was inactive: -19.9%.
With `Cc1ccc(-c2csc3nc[nH]c(=O)c23)cc1` the activity change, negative = growth inhibition was inconclusive: -38.2% [inhibitor].
For `CSCc1ccc(C(=O)NCc2ccccc2)cc1`, the Potency was inconclusive [inhibitor, single point].
With `CN(C)S(=O)(=O)c1cc(NC(=O)CN2CCN(c3ccccc3O)CC2)ccc1Cl` the Potency was inconclusive [inhibitor, partial curve, poor fit].
For `Cc1ccc(S(=O)(=O)n2cnc3ccccc32)c(C)c1`, the “activity change, negative = growth inhibition” value was inactive: -22.7%.
In the case of `O=C(CCSCc1cccc(F)c1)NCCc1ccccc1`, the Potency is reported as “inactive”.
For `O=C(N/N=C\c1cn[nH]c1-c1ccccc1)c1ccc([N+](=O)[O-])cc1`, the Potency was inconclusive [inhibitor, single point].
With `CCOC(=O)c1sc(C)c2c1NC1(CCCCCC1)NC2=O` the activity change, negative = growth inhibition was inconclusive: -34.6% [inhibitor].
With `CC(C)C[C@H]1CNC(=O)C(=O)N1C[C@@H]1CCCN1C[C@H](Cc1ccccc1)N1C[C@H](Cc2ccccc2)N(CCc2ccccc2)C(=O)C1=O` the Potency was inconclusive [inhibitor, single point].
For `O=C1CCCN1c1ccc(S(=O)(=O)N2CCCCC2)cc1[N+](=O)[O-]`, the “activity change, negative = growth inhibition” value was inactive: -27.8%.
For `CC1=C(C(=O)Nc2cccc(F)c2)C2(CCCCCC2)OC1=O`, the Potency was inconclusive [inhibitor, single point].
With `C[C@H](NC(=O)c1ccc2ccccc2c1)C(=O)N1CCC2(CC1)NCCc1[nH]cnc12` the “activity change, negative = growth inhibition” value was inactive: -22.7%.
With `COc1ccc(NCN2C(=O)CCC2=O)cc1` the Potency was inconclusive [inhibitor, single point].
For `CCCCN1CC[C@H]2C=CC[C@@H](C(=O)Nc3nccs3)[C@H]2C1=O`, the Potency was “inactive”.
In the case of `COc1ccc(C2Nc3ccccc3C(=O)N2NS(=O)(=O)c2ccc(C)cc2)cc1OC` (centres undefined), the Potency is reported as inconclusive [inhibitor, single point].
With `CC(=O)Nc1ccc(NS(=O)(=O)c2ccc(C)cc2)c([N+](=O)[O-])c1` the “activity change, negative = growth inhibition” value was inactive: -17%.
In the case of `c1ccc(C(c2ccccc2)N2CCN(Cc3nnnn3C3CCCCC3)CC2)cc1`, the Potency is reported as active: 20.6 µM.
For `COc1ccc2c(c1)cc(C)c1nnc(SCC(=O)N(C)c3nc(-c4ccccc4)cs3)n12`, the Potency was inconclusive [inhibitor, single point].
With `COc1cc(NC(=O)[C@H]2CCCN2S(=O)(=O)c2cccc3cccnc23)cc(OC)c1OC` the Potency was inconclusive [inhibitor, single point].
With `COCCCNc1oc(-c2ccc(COc3ccccc3C)o2)nc1C#N` the Potency was inconclusive [inhibitor, single point].
With `Cc1ccc(Oc2ccc(S(=O)(=O)N3CCOCC3)cc2C(N)=O)c(-n2nc3ccccc3n2)c1` the Potency was active: 4.11 µM.
In the case of `CC1CN(C(=O)C(C)N2CCN(c3cccc(Cl)c3)CC2)CC(C)O1` (centres undefined), the Potency is reported as inconclusive [inhibitor, single point].
For `COc1cc(OC)c(NC(=O)Cn2c(=O)nc(-c3ccccc3)c3ccccc32)cc1Cl`, the “activity change, negative = growth inhibition” value was inactive: 13.2%.
With `Oc1c(CN2CCOCC2)cc(-c2ccccc2)cc1CN1CCOCC1` the “activity change, negative = growth inhibition” value was inactive: -8.41%.
For `COc1ccc(CCNc2nc3ccccc3n3cnnc23)cc1OC`, the Potency was inconclusive [inhibitor, partial curve].
In the case of `CC1CCCN(c2c([N+](=O)[O-])c(=O)oc3ccccc23)C1` (centres undefined), the Potency is reported as inconclusive [inhibitor, single point].
In the case of `Cc1nnc(N(Cc2ccco2)C(=O)c2cccc(C#N)c2)s1`, the Potency is reported as inconclusive [inhibitor, single point].
For `Cc1ccc2c(=O)c(C(=O)c3cccc(Cl)c3)cn(CC(=O)NCc3ccccc3)c2n1`, the “activity change, negative = growth inhibition” value was inactive: -26.2%.
With `Cc1cc(C)nc(Sc2ccc([N+](=O)[O-])cc2[N+](=O)[O-])n1` the Potency was active: 1.03 µM.
In the case of `Cc1cc(C(=O)N2CCc3ccccc32)ccc1[N+](=O)[O-]`, the Potency is reported as inconclusive [inhibitor, single point].
For `CCCCc1cc(=O)oc2cc(O)cc(O)c12`, the Potency was active: 9.2 µM.
In the case of `Cc1ccc(-c2noc(CCC(=O)NC3CCN(Cc4ccccc4)CC3)n2)cc1`, the Potency is reported as inconclusive [inhibitor, partial curve].
For `CC(=O)c1ccc(S(=O)(=O)N2CCN(C(=O)CCC3CCCC3)CC2)cc1`, the Potency was inconclusive [inhibitor, single point].
In the case of `COc1ccc(OC)c(NC(=O)c2cc3n(n2)C(C(F)(F)F)CC(c2ccc4c(c2)OCO4)N3)c1` (centres undefined), the Potency is reported as inconclusive [inhibitor, single point].
In the case of `Nc1c(-c2cccs2)cnn1-c1nc(-c2ccc(Cl)cc2Cl)cs1`, the activity change, negative = growth inhibition is reported as inconclusive: -31.9% [inhibitor].
For `CCc1ccc(C2=CC(c3cccc(OC)c3OC)n3c(nc4ccccc43)N2)cc1` (centres undefined), the Potency was inconclusive [inhibitor, single point].
For `COc1ccc(Cl)cc1/C=C1/C(=O)ON=C1C`, the Potency was inconclusive [inhibitor, single point].
In the case of `COc1ccc(CCNC(=O)Cn2c(=O)cc(C(F)(F)F)c3c(C)nn(C)c32)c(OC)c1`, the Potency is reported as inconclusive [inhibitor, single point].
In the case of `CCCC(=O)C1=C(N(C)c2ccccc2)CC(C)(C)CC1=O`, the “activity change, negative = growth inhibition” value is reported as inactive: -11.6%.
For `CCOc1cc(CNC(=O)c2cc(-c3ccc(Cl)s3)nc3ccccc23)ccc1OC`, the Potency was inconclusive [inhibitor, partial curve].
For `CCOc1ccc2nc(N/C(N)=N/C(=S)Nc3cccc(C)c3)nc(C)c2c1`, the Potency was active: 20.6 µM.
With `C=CCOc1cccc(CNn2nnnc2N)c1` the “activity change, negative = growth inhibition” value was inactive: -10.6%.
With `O=C(Nc1cccc(Cl)c1)c1cc(-c2ccco2)on1` the Potency was inconclusive [inhibitor, single point].
In the case of `O=C(NC(=S)Nc1ccccc1N1CCOCC1)c1ccc(-c2cccc(Cl)c2)o1`, the Potency is reported as inconclusive [inhibitor, single point].
For `CCCc1c(C(=O)N/N=C(\C)c2ccccn2)nnn1-c1nonc1N`, the Potency was active: 1.64 µM.
With `COc1cc(/C=C/C(=O)NC(C)(C)C)ccc1OCc1ccccc1` the Potency was inconclusive [inhibitor, single point].
In the case of `Oc1ccccc1-c1nc(NCc2ccco2)c2ccccc2n1`, the Potency is reported as inconclusive [inhibitor, single point].
In the case of `Cc1ccc(-c2cc(C(=O)Nc3cc(C)ccc3C)[nH]n2)c(O)c1`, the Potency is reported as inconclusive [inhibitor, single point].
With `O=C(CC1CC2CCC1C2)N1CCN(S(=O)(=O)c2ccccc2[N+](=O)[O-])CC1` (centres undefined) the Potency was inconclusive [inhibitor, single point].
With `CCCCCCCCC(c1nc2ccccc2[nH]1)N1CCN=C(c2ccccc2)C1=O` (centres undefined) the Potency was inconclusive [inhibitor, single point].
In the case of `Cc1nc(-c2ccncc2)nc(NCCNc2ccc(C(F)(F)F)cn2)c1Cl`, the Potency is reported as inconclusive [inhibitor, partial curve, poor fit].
With `O=C(CNc1cccc(S(=O)(=O)N2CCCCC2)c1)Nc1ccc(C(F)(F)F)cc1` the Potency was inconclusive [inhibitor, single point].
% is set by controls: 0 for no effect and ±100 for the full control effect; potency is the fitted concentration of half-maximal effect; tags give direction and shape of the fitted curve.
